90 compounds from article PMC4336329 (PLoS ONE, 2015) can be followed below.

The campaign covered roughly 310,000 compounds. About 14,000 (4.5%) showed an effect of 50% or more. The effect is printed as a negative number. The list shows a part of the results. Where a SMILES comes first, the peptide text is derived from it. [ ]: non-standard residue; d: D form. The star is where a group is joined. ξ: configuration not given here. Cbz = O=C(OCc1ccccc1)*; ξK = NCCCCC(N)C(=O)O
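Further: peak tail current of the secondary pulse compared with the same well before compound.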

In the assay the target is human ether-à-go-go-related gene (hERG) potassium channel (human, UniProt Q12809). Briefly: primary screen, population patch clamp on CHO cells stably expressing hERG.
Sequence of human ether-à-go-go-related gene (hERG) potassium channel (Q12809 whole entry, looked up): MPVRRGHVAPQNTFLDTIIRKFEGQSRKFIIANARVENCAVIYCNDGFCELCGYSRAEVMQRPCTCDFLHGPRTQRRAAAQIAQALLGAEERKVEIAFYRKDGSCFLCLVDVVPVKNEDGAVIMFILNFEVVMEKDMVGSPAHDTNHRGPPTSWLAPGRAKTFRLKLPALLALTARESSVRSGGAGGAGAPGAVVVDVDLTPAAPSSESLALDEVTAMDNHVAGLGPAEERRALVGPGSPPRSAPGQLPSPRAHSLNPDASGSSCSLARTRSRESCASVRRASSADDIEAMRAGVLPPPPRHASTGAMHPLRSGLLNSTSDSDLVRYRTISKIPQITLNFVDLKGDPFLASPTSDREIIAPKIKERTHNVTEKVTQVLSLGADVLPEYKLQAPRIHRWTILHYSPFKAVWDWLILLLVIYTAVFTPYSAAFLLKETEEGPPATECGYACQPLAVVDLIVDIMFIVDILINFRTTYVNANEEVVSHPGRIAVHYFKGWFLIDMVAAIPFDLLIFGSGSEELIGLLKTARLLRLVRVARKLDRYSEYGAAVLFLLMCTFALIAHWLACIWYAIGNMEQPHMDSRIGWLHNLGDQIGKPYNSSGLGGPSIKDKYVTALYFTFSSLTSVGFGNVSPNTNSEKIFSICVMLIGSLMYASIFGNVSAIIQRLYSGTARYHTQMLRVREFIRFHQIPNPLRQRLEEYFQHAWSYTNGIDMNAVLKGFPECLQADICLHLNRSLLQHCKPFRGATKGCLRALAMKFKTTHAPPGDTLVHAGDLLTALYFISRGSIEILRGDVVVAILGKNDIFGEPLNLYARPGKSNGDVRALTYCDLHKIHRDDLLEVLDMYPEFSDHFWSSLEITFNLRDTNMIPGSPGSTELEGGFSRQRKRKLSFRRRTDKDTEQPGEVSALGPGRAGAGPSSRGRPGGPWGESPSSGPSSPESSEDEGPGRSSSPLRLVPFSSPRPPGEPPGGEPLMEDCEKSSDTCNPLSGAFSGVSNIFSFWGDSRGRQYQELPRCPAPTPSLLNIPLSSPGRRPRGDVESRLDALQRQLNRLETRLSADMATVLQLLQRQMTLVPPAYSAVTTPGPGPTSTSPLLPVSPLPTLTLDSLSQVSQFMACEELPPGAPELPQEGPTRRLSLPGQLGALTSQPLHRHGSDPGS
On to `CCOC(=O)N/N=C\c1ccc([N+](=O)[O-])o1`, for which the “hERG current change (%, negative = inhibition) at 10uM” value is reported as 15.1%. Under `Cc1ccc(N2C(=O)CC(C3CCCO3)C2=O)cc1` (stereo not drawn) stands 14.6%. Take `O=C1CCC(C(=O)N(CCO)Cc2ccccc2)CN1CCCN1CCOCC1` (stereo not drawn): the “hERG current change (%, negative = inhibition) at 10uM” value was 30.9%. Take `Cc1cccc(-c2nc3ccc(C(=O)NCCN4CCN(C)CC4)cc3nc2-c2cccc(C)c2)c1`: the “hERG current change (%, negative = inhibition) at 10uM” value is -11.7%. Under `CC(C)CC(NC(N)=O)C(=O)OCC(=O)NC(=O)NC1CCCC1` (stereo not drawn) stands 16.7%; under `Cc1n[nH]c(=S)n(/N=C/c2cccs2)c1=O`, 17.9%. As to `O=C(c1cnn2c(C(F)F)cc(-c3ccccc3)nc12)N1CCc2ccccc21`, the “hERG current change (%, negative = inhibition) at 10uM” value worked out at 23%. With `O=C(CNC(=O)c1ccco1)Nc1ccc(Br)cc1` the figure was 9.84%; with `COC(=O)c1ccc(-c2ccco2)n1Cc1cc(C)ccc1C`, 5.05%; with `COC(=O)C1=C(N)Oc2c(c(=O)oc3ccccc23)C1c1cccnc1` (stereo not drawn), -24.1%. Consider `CC(=O)c1ccc[n+](CC(=O)NC(C)c2ccccc2)c1.[Cl-]` (stereo not drawn), for which the “hERG current change (%, negative = inhibition) at 10uM” value is 26.8%. Under `Cc1ccc(C(=O)CC2(O)C(=O)N(Cc3ccccc3)c3ccccc32)o1` (stereo not drawn) stands -4.9%; under `CCOC(=O)c1sc(N/N=C/c2cccc(C)c2)nc1C`, 2.35%; under `O=C(c1cccnc1)N1CCN(C(=O)c2cccc(Cl)c2)CC1`, 22.4%. Under `CC(=O)CN1C(=O)NC(c2ccccc2)(c2ccccc2)C1=O` stands -26.8%.

As for `Cc1ccc(C(=O)C=CNNC(=O)c2ccccc2)cc1`, the “hERG current change (%, negative = inhibition) at 10uM” value is -35.8%.

As for `Cc1ccc(OCCNC(=O)CNC(=O)c2ccccc2Cl)cc1`, the “hERG current change (%, negative = inhibition) at 10uM” value is recorded as -3.58%. With `CCc1cccc2c(C(=O)C(NCCCOC)c3ccccc3)c[nH]c12` (stereo not drawn) the figure was 2.05%; with `Cc1cc(C)c2c(NC(=S)Nc3ccccc3)n[nH]c2n1`, 9.95%. Turning to `Cc1ccccc1C(=O)N1CCN(c2ccc(NC(=O)c3ccco3)cc2)CC1`, the “hERG current change (%, negative = inhibition) at 10uM” value turned out to be 5.43%. With `O=c1oc2ccccc2c(O)c1/C=C1\C=Nc2ccccc21` the figure was 3.98%; with `O=C(NC1CCCC1)c1c(O)nc2sccn2c1=O`, -2.05%; with `CC(C)N(Cc1ccccc1)C(=O)COC(=O)c1ccc2ncsc2c1`, -10.1%. With `O=C(NNC(=O)[C@H]1CC=CC[C@H]1C(=O)O)c1ccc(Cl)cc1Cl` the figure was 20.1%; with `Cc1ccccc1OCC(=O)N(CC(C)C)c1c(N)n(CC(C)C)c(=O)[nH]c1=O`, 0.716%.

`CCn1c(COc2ccc(C)cc2)nnc1SCc1ccc(C#N)cc1`: the “hERG current change (%, negative = inhibition) at 10uM” value is -59.6%. `O=C(Nc1c(F)cccc1F)C(c1ccccc1)c1ccccc1`: the “hERG current change (%, negative = inhibition) at 10uM” value is recorded as 18%. On to `CC(/C=C/c1ccccc1F)=N\NC(=O)c1ccc(Cl)cc1`, for which the “hERG current change (%, negative = inhibition) at 10uM” value came out at 23.5%. `C[C@@H]1NS(=O)(=O)[C@H]2C[C@@H]3C=C[C@]2(O3)[C@H]1OC(=O)c1ccccc1Br`: the “hERG current change (%, negative = inhibition) at 10uM” value is 4.24%.

For the compound `Cl.Nc1cnn(Cc2ccc(F)cc2)c1`, the “hERG current change (%, negative = inhibition) at 10uM” value is 15.1%. With `CN1CCCC(OC(=O)c2ccc(S(=O)(=O)N(C)C)cc2)C1.Cl` (stereo not drawn) the figure was 8.58%; with `CC(C)c1onc(C(=O)NC(C)c2ccccc2)c1[N+](=O)[O-]` (stereo not drawn), 10.1%.

Consider `CC(C)CCNC(=O)CCCOc1cc(=O)n(C)c2ccccc12`, for which the “hERG current change (%, negative = inhibition) at 10uM” value is reported as -1.2%. `Cc1ccnc(Sc2nc3c(c(=O)[nH]c(=O)n3C)n2CCCc2ccccc2)n1`: the “hERG current change (%, negative = inhibition) at 10uM” value worked out at 13.5%. Under `Cc1c(OCC(=O)NCC(O)c2ccccc2)ccc2c3c(c(=O)oc12)CCC3` (stereo not drawn) stands -8.23%; under `COc1ccc(-c2csc(N3C(=O)C4C5c6ccccc6C(c6ccccc65)C4C3=O)n2)cc1` (stereo not drawn), 9.58%. With `N#Cc1ccccc1OCc1nnc(-c2ccccc2Br)o1` the figure was 14.1%. With `CN(C)C(CNC(=O)C1CCN(S(=O)(=O)c2ccc(Cl)cc2)CC1)c1ccccc1` (stereo not drawn) the figure was -27.2%; with `CCSc1ccccc1C(=O)N1CCCC1`, -5.81%; with `COC(=O)C1C(=O)C2=C(CC1C)NC(=O)CC2c1ccccc1` (stereo not drawn), -10.2%. Regarding `COc1cccc(-c2nc(CS(=O)CC(=O)NCCCOC(C)C)c(C)o2)c1` (stereo not drawn), the “hERG current change (%, negative = inhibition) at 10uM” value is -0.119%. With `Cc1cc(C)n(CC(=O)N/N=C/c2ccc([N+](=O)[O-])s2)n1` the figure was 15.6%; with `Cc1ccc(-c2nn(C)c(=O)c3ccccc23)cc1CNC(=O)/C=C/c1ccccc1`, -13.9%; with `CNC(=S)NCCc1cc2c(OC)ccc(OC)c2[nH]c1=O`, 12.1%. Take `CC(C)Oc1cccc(C(=O)C2CCCN(Cc3ccon3)C2)c1` (stereo not drawn): the “hERG current change (%, negative = inhibition) at 10uM” value is recorded as -3.37%. As to `Cc1cc(C)cc(OCCCOc2cccc3cccnc23)c1`, the “hERG current change (%, negative = inhibition) at 10uM” value is -8.87%. Regarding `CCOc1cc(N2CCOCC2)c(OCC)cc1NC(=O)C(C)C`, the “hERG current change (%, negative = inhibition) at 10uM” value is on record as -0.139%. With `CC(C)(C)NC(=O)CN1CCCN(C(=O)COc2ccc(Cl)c3ccccc23)CC1` the figure was -38.9%. With `CC1=C(C)CC(C(=O)N2CCN(Cc3ccccc3)CC2)C(C(=O)O)C1` (stereo not drawn) the figure was 5.81%; with `CC(C)OC(=O)CSc1nc2ncccc2[nH]1`, 7.64%. `COc1ccc(Cl)cc1C(=O)N1CCN=C1SC`: the “hERG current change (%, negative = inhibition) at 10uM” value is 21.3%. For the compound `O=c1c(-c2ccc(O)cc2)coc2cc(OC3OC(CO)C(O)C(O)C3O)ccc12` (stereo not drawn), the “hERG current change (%, negative = inhibition) at 10uM” value worked out at 30.8%. With `COc1ccc(CN(C)C(=O)Cn2ccsc2=N)cc1OC.Cl` the figure was 13.7%; with `S=c1[nH]nc(COc2ccccc2)n1/N=C/c1ccco1`, 12.8%; with `CS(=O)(=O)N(CC(=O)NCc1ccncc1)c1cc(Cl)ccc1Cl`, 13.4%. Under `CC(c1nnc(SCC(=O)c2c(N)n(C)c(=O)n(C)c2=O)n1-c1ccc(Cl)cc1)N(C)C` (stereo not drawn) stands 5.35%. Consider `O=C(O)C1CC=CCC1C(=O)NCCc1cccc(Cl)c1` (stereo not drawn), for which the “hERG current change (%, negative = inhibition) at 10uM” value is on record as 4.9%. Under `CCOc1nc(NCc2ccco2)nc(Nc2ccccc2F)n1` stands 5.54%.

As to `CCc1ncc(CN2CCCCC2C(=O)Nc2ccc(Oc3ccccc3)nc2)cn1` (stereo not drawn), the “hERG current change (%, negative = inhibition) at 10uM” value is given as -14.5%. In the case of `COc1ccc2cc(C(C)C(=O)Nc3cccc(S(=O)(=O)N(C)C)c3)ccc2c1` (stereo not drawn), the “hERG current change (%, negative = inhibition) at 10uM” value is reported as -6.54%. Under `COC(=O)c1sc(S(=O)(=O)N2CCCCC2C(=O)O)c(C(=O)OC)c1C` (stereo not drawn) stands 9.14%; under `NCCCC[C@@H](C(=O)NCCCCCCCCCCC(=O)N1CCNCC1)n1cc(CCO)nn1`, 13.8%. Under `C=CCNc1nc(Nc2ccc([N+](=O)[O-])cc2)nc(N2CCCC2)n1` stands -23.8%; under `Cn1c(=O)c2c(ncn2CC(=O)OCC(=O)NCc2ccccc2Cl)n(C)c1=O`, 13.1%. `Cc1ccc(NC(=O)NNC(=O)CN2C(=O)COc3ccccc32)cc1`: the “hERG current change (%, negative = inhibition) at 10uM” value amounted to 2.83%. `CC(C)Cn1c(CNC(=O)c2ccccc2)nc2ccccc21`: the “hERG current change (%, negative = inhibition) at 10uM” value is given as -8.16%.

Take `CCOC(=O)c1c2c([nH]c(=S)c1C#N)CCCC2`: the “hERG current change (%, negative = inhibition) at 10uM” value is on record as 22.1%. For `COc1ccc(NC(=O)O/N=C/c2ccc(Br)cc2)cc1`, the “hERG current change (%, negative = inhibition) at 10uM” value stood at 26.9%. With `O=C(Cn1nnc(-c2cccc(C(F)(F)F)c2)n1)NC(=O)NCc1ccco1` the figure was 10.2%; with `O=C(CCc1nc2ccccc2c(=O)[nH]1)N1CCN(S(=O)(=O)c2ccc(Cl)c(C(F)(F)F)c2)CC1`, -20%; with `COC(=O)C(CCCCNC(=O)OCc1ccccc1)NC(=O)CN.Cl` (stereo not drawn) (H-Gly-[ξK](Cbz)-OMe), 8.85%. `Cn1c(SCC(=O)c2ccccc2)nnc1-c1cccc(N)c1`: the “hERG current change (%, negative = inhibition) at 10uM” value was 8.57%.

For `CSc1ccc(/C=N/NC(=O)c2cccc(O)c2)cc1`, the “hERG current change (%, negative = inhibition) at 10uM” value is recorded as 8%. For `COC(=O)C1CSC2c3ccccc3C(=O)N12` (stereo not drawn), the “hERG current change (%, negative = inhibition) at 10uM” value worked out at 9.53%. With `CC(C)c1ccccc1NC(=O)c1cccnc1` the figure was 2.91%; with `CC1CC(C)CN(CCCNC(=O)C2CCN(c3nnc(-n4cccc4)s3)CC2)C1` (stereo not drawn), -28.3%; with `COc1ccccc1C(=O)NCCn1cc(SCC(=O)Nc2cc(C)on2)c2ccccc21`, -15.6%. With `CCc1nnc(NC(=O)CN2C(=O)NC3(CCCC3)C2=O)s1` the figure was -0.499%; with `CCOC(=O)Cc1csc(NC(=O)C(CC(C)C)NC(=O)C2CCCCC2)n1` (stereo not drawn), 7.55%; with `Cc1cc(=O)oc2cc(NC(=O)c3cccc(S(=O)(=O)N(C)C)c3)ccc12`, 16.4%. Under `OC[C@@H](O)[C@@H](O)[C@H](O)[C@@H](O)CO` stands 10.3%; under `C=CCNC(=S)Nc1ccc(OC)c(S(=O)(=O)N2CCOCC2)c1`, -10.3%. On to `CCOC(=O)Cn1c(=O)sc2ccccc21`, for which the “hERG current change (%, negative = inhibition) at 10uM” value came out at 1.17%. Under `COc1ccccc1-n1c(SCC(=O)N2CCc3ccccc32)nc2c(c1=O)SCC2` stands 7.1%; under `COc1ccc(NC(=O)Cn2c(CCC(=O)O)ccc2-c2ccc(C)cc2)cc1`, 1.48%.

With `Cc1cccc(Nc2nc(N3CCCC3)nc(N3CCCC3)n2)c1`, the “hERG current change (%, negative = inhibition) at 10uM” value turned out to be 1.44%.

As to `CCn1c(NCc2ccccn2)nc2ccccc21`, the “hERG current change (%, negative = inhibition) at 10uM” value was -4.06%.

In the case of `CSc1ccc(CN(C)C(=O)c2cccc(S(=O)(=O)N3CCN(Cc4ccccc4)CC3)c2)cc1`, the “hERG current change (%, negative = inhibition) at 10uM” value is recorded as -1.76%. Regarding `COC(=O)C1=C(C)NC(=O)NC1c1cccc(OC)c1OCc1ccccc1` (stereo not drawn), the “hERG current change (%, negative = inhibition) at 10uM” value is -11.9%. Under `Cc1cccc(-c2oc3ccccc3c2C#CCCO)c1` stands 16.7%.
